# Test results reported in the supplement of paper PMC8728848.
# The other results are listed elsewhere or left out.
# B1: TIM1 (protein)
# chain: ADGIQSVKVGGEAGPSVTLPCHYSGAVTSMCWNRGSCSLFTCQNGIVWTNGTHVTYRKDTRYKLLGDLSRRDVSLTIENTAVSDSGVYCCRVEHRGWFNDMKITVSLEIVPPHHHHHH
# Tests used:
# Assay in all cases: glycan array binding signal (z-score within array); higher = stronger binding
# Settings in all cases: glycan notation: IUPAC condensed, linker removed
# [1] = target: GlcNAc(b1-2)Gal(b1-3)GalNAc
# In short: (§1)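 Glycan array data were curated from 3228 arrays in the Consortium for Functional Glycomics database and kept only where the protein sequence was available. Glycan names were converted to IUPAC-condensed notation, and columns mapping to the same glycan were averaged. The binding signal is a within-array Z-score, averaged across arrays of the same protein sequence at different concentrations or buffers and across linkers. Negative Z-scores can be read as non-binding.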
# [2] = target: GlcNAc(b1-2)Man(a1-3)[GlcNAc(b1-2)Man(a1-6)]Man(b1-4)GlcNAc(b1-4)GlcNAc
# In short: as §1
# [3] = target: GlcNAc(b1-2)Man(a1-3)[GlcNAc(b1-2)Man(a1-6)]Man(b1-4)GlcNAc(b1-4)[Fuc(a1-6)]GlcNAc
# In short: as §1
# [4] = target: GlcNAc(b1-2)Man(a1-3)[GlcNAc(b1-4)][GlcNAc(b1-2)Man(a1-6)]Man(b1-4)GlcNAc(b1-4)GlcNAc
# In short: as §1
# [5] = target: GlcNAc(b1-2)Man(a1-3)[GlcNAc(b1-4)][GlcNAc(b1-2)Man(a1-6)]Man(b1-4)GlcNAc(b1-4)[Fuc(a1-6)]GlcNAc
# In short: as §1
# [6] = target: GlcNAc(b1-2)[GlcNAc(b1-4)]Man(a1-3)[GlcNAc(b1-2)Man(a1-6)]Man(b1-4)GlcNAc(b1-4)GlcNAc
# In short: as §1
# [7] = target: GlcNAc(b1-2)[GlcNAc(b1-4)]Man(a1-3)[GlcNAc(b1-4)][GlcNAc(b1-2)Man(a1-6)]Man(b1-4)GlcNAc(b1-4)GlcNAc
# In short: as §1
# [8] = target: GlcNAc(b1-2)[GlcNAc(b1-4)]Man(a1-3)[GlcNAc(b1-4)][GlcNAc(b1-2)[GlcNAc(b1-6)]Man(a1-6)]Man(b1-4)GlcNAc(b1-4)GlcNAc
# In short: as §1
# [9] = target: GlcNAc(b1-2)[GlcNAc(b1-4)]Man(a1-3)[GlcNAc(b1-4)][GlcNAc(b1-2)[GlcNAc(b1-6)]Man(a1-6)]Man(b1-4)GlcNAc(b1-4)[Fuc(a1-6)]GlcNAc
# In short: as §1
# [10] = target: GlcNAc(b1-2)[GlcNAc(b1-6)]Man(a1-6)[GlcNAc(b1-2)Man(a1-3)]Man(b1-4)GlcNAc(b1-4)GlcNAc
# In short: as §1
# [11] = target: GlcNAc(b1-2)[GlcNAc(b1-6)]Man(a1-6)[GlcNAc(b1-2)Man(a1-3)]Man(b1-4)GlcNAc(b1-4)[Fuc(a1-6)]GlcNAc
# In short: as §1
# [12] = target: GlcNAc(b1-2)[GlcNAc(b1-6)]Man(a1-6)[GlcNAc(b1-4)][GlcNAc(b1-2)Man(a1-3)]Man(b1-4)GlcNAc(b1-4)GlcNAc
# In short: as §1
# GlcNAc(b1-3)Fuc = target: GlcNAc(b1-3)Fuc
# In short: as §1
# GlcNAc(b1-3)Gal = target: GlcNAc(b1-3)Gal
# In short: as §1
# [13] = target: GlcNAc(b1-3)Gal(b1-3)GalNAc
# In short: as §1
# GlcNAc(b1-3)Gal(b1-4)Glc = target: GlcNAc(b1-3)Gal(b1-4)Glc
# In short: as §1
# [14] = target: GlcNAc(b1-3)Gal(b1-4)GlcNAc
# In short: as §1
# [15] = target: GlcNAc(b1-3)Gal(b1-4)GlcNAc(b1-2)Man(a1-3)[GlcNAc(b1-3)Gal(b1-4)GlcNAc(b1-2)Man(a1-6)]Man(b1-4)GlcNAc(b1-4)GlcNAc
# In short: as §1
# [16] = target: GlcNAc(b1-3)Gal(b1-4)GlcNAc(b1-2)Man(a1-3)[GlcNAc(b1-3)Gal(b1-4)GlcNAc(b1-2)Man(a1-6)]Man(b1-4)GlcNAc(b1-4)[Fuc(a1-6)]GlcNAc
# In short: as §1
# [17] = target: GlcNAc(b1-3)Gal(b1-4)GlcNAc(b1-2)[GlcNAc(b1-3)Gal(b1-4)GlcNAc(b1-6)]Man(a1-6)[GlcNAc(b1-3)Gal(b1-4)GlcNAc(b1-2)Man(a1-3)]Man(b1-4)GlcNAc(b1-4)GlcNAc
# In short: as §1
# [18] = target: GlcNAc(b1-3)Gal(b1-4)GlcNAc(b1-3)Gal(b1-4)GlcNAc
# In short: as §1
# [19] = target: GlcNAc(b1-3)Gal(b1-4)GlcNAc(b1-3)Gal(b1-4)GlcNAc(b1-2)Man(a1-3)[GlcNAc(b1-3)Gal(b1-4)GlcNAc(b1-3)Gal(b1-4)GlcNAc(b1-2)Man(a1-6)]Man(b1-4)GlcNAc(b1-4)GlcNAc
# In short: as §1
# [20] = target: GlcNAc(b1-3)Gal(b1-4)GlcNAc(b1-3)Gal(b1-4)GlcNAc(b1-2)Man(a1-3)[GlcNAc(b1-3)Gal(b1-4)GlcNAc(b1-3)Gal(b1-4)GlcNAc(b1-2)Man(a1-6)]Man(b1-4)GlcNAc(b1-4)[Fuc(a1-6)]GlcNAc
# In short: as §1
# [21] = target: GlcNAc(b1-3)Gal(b1-4)GlcNAc(b1-3)Gal(b1-4)GlcNAc(b1-2)[GlcNAc(b1-3)Gal(b1-4)GlcNAc(b1-3)Gal(b1-4)GlcNAc(b1-6)]Man(a1-6)[GlcNAc(b1-3)Gal(b1-4)GlcNAc(b1-3)Gal(b1-4)GlcNAc(b1-2)Man(a1-3)]Man(b1-4)GlcNAc(b1-4)[Fuc(a1-6)]GlcNAc
# In short: as §1
# [22] = target: GlcNAc(b1-3)Gal(b1-4)GlcNAc(b1-3)Gal(b1-4)GlcNAc(b1-3)Gal(b1-4)GlcNAc(b1-2)Man(a1-3)[GlcNAc(b1-3)Gal(b1-4)GlcNAc(b1-3)Gal(b1-4)GlcNAc(b1-3)Gal(b1-4)GlcNAc(b1-2)Man(a1-6)]Man(b1-4)GlcNAc(b1-4)GlcNAc
# In short: as §1
# [23] = target: GlcNAc(b1-3)Gal(b1-4)GlcNAc(b1-3)Gal(b1-4)GlcNAc(b1-3)Gal(b1-4)GlcNAc(b1-2)Man(a1-3)[GlcNAc(b1-3)Gal(b1-4)GlcNAc(b1-3)Gal(b1-4)GlcNAc(b1-3)Gal(b1-4)GlcNAc(b1-2)Man(a1-6)]Man(b1-4)GlcNAc(b1-4)[Fuc(a1-6)]GlcNAc
# In short: as §1
# [24] = target: GlcNAc(b1-3)Gal(b1-4)GlcNAc(b1-3)Gal(b1-4)GlcNAc(b1-3)Gal(b1-4)GlcNAc(b1-2)[GlcNAc(b1-3)Gal(b1-4)GlcNAc(b1-3)Gal(b1-4)GlcNAc(b1-3)Gal(b1-4)GlcNAc(b1-6)]Man(a1-6)[GlcNAc(b1-3)Gal(b1-4)GlcNAc(b1-3)Gal(b1-4)GlcNAc(b1-3)Gal(b1-4)GlcNAc(b1-2)Man(a1-3)]Man(b1-4)GlcNAc(b1-4)[Fuc(a1-6)]GlcNAc
# In short: as §1
# [25] = target: GlcNAc(b1-3)Gal(b1-4)GlcNAc(b1-3)Gal(b1-4)GlcNAc(b1-3)Gal(b1-4)GlcNAc(b1-3)Gal(b1-4)GlcNAc(b1-2)Man(a1-3)[GlcNAc(b1-3)Gal(b1-4)GlcNAc(b1-3)Gal(b1-4)GlcNAc(b1-3)Gal(b1-4)GlcNAc(b1-3)Gal(b1-4)GlcNAc(b1-2)Man(a1-6)]Man(b1-4)GlcNAc(b1-4)GlcNAc
# In short: as §1
# [26] = target: GlcNAc(b1-3)Gal(b1-4)GlcNAc(b1-3)Gal(b1-4)GlcNAc(b1-3)Gal(b1-4)GlcNAc(b1-3)Gal(b1-4)GlcNAc(b1-2)Man(a1-3)[GlcNAc(b1-3)Gal(b1-4)GlcNAc(b1-3)Gal(b1-4)GlcNAc(b1-3)Gal(b1-4)GlcNAc(b1-3)Gal(b1-4)GlcNAc(b1-2)Man(a1-6)]Man(b1-4)GlcNAc(b1-4)[Fuc(a1-6)]GlcNAc
# In short: as §1
# [27] = target: GlcNAc(b1-3)Gal(b1-4)GlcNAc(b1-3)Gal(b1-4)GlcNAc(b1-3)Gal(b1-4)GlcNAc(b1-3)Gal(b1-4)GlcNAc(b1-2)[GlcNAc(b1-3)Gal(b1-4)GlcNAc(b1-3)Gal(b1-4)GlcNAc(b1-3)Gal(b1-4)GlcNAc(b1-3)Gal(b1-4)GlcNAc(b1-6)]Man(a1-6)[GlcNAc(b1-3)Gal(b1-4)GlcNAc(b1-3)Gal(b1-4)GlcNAc(b1-3)Gal(b1-4)GlcNAc(b1-3)Gal(b1-4)GlcNAc(b1-2)Man(a1-3)]Man(b1-4)GlcNAc(b1-4)[Fuc(a1-6)]GlcNAc
# In short: as §1
# [28] = target: GlcNAc(b1-3)Gal(b1-4)GlcNAc(b1-3)Gal(b1-4)GlcNAc(b1-3)GalNAc
# In short: as §1
# [29] = target: GlcNAc(b1-3)Gal(b1-4)GlcNAc(b1-3)GalNAc
# In short: as §1
# [30] = target: GlcNAc(b1-3)Gal(b1-4)GlcNAc(b1-3)[GlcNAc(b1-3)Gal(b1-4)GlcNAc(b1-3)]GalNAc
# In short: as §1
# [31] = target: GlcNAc(b1-3)Gal(b1-4)GlcNAc(b1-6)[Gal(b1-3)]GalNAc
# In short: as §1
# [32] = target: GlcNAc(b1-3)Gal(b1-4)GlcNAc(b1-6)[GlcNAc(b1-3)Gal(b1-3)]GalNAc
# In short: as §1
# [33] = target: GlcNAc(b1-3)Gal(b1-4)GlcNAc(b1-6)[GlcNAc(b1-3)]Gal(b1-4)GlcNAc
# In short: as §1
# GlcNAc(b1-3)GalNAc = target: GlcNAc(b1-3)GalNAc
# In short: as §1
# GlcNAc(b1-3)Man = target: GlcNAc(b1-3)Man
# In short: as §1
# [34] = target: GlcNAc(b1-3)[GlcNAc(b1-4)][GlcNAc(b1-6)]GlcNAc
# In short: as §1
# [35] = target: GlcNAc(b1-3)[GlcNAc(b1-6)]Gal(b1-4)GlcNAc
# In short: as §1
# [36] = target: GlcNAc(b1-3)[GlcNAc(b1-6)]GalNAc
# In short: as §1
# [37] = target: GlcNAc(b1-4)Gal(b1-4)GlcNAc
# In short: as §1
# GlcNAc(b1-4)GlcNAc = target: GlcNAc(b1-4)GlcNAc
# In short: as §1
# [38] = target: GlcNAc(b1-4)GlcNAc(b1-4)GlcNAc
# In short: as §1
# [39] = target: GlcNAc(b1-4)GlcNAc(b1-4)GlcNAc(b1-4)GlcNAc(b1-4)GlcNAc
# In short: as §1
binder,measurement,setting,value
B1,glycan array binding signal (z-score),[1],-0.135
same,glycan array binding signal (z-score),[2],-0.204
same,glycan array binding signal (z-score),[3],0.709
same,glycan array binding signal (z-score),[4],-0.14
same,glycan array binding signal (z-score),[5],-0.281
same,glycan array binding signal (z-score),[6],-0.292
same,glycan array binding signal (z-score),[7],0.106
same,glycan array binding signal (z-score),[8],-0.286
same,glycan array binding signal (z-score),[9],-0.295
same,glycan array binding signal (z-score),[10],-0.204
same,glycan array binding signal (z-score),[11],-0.171
same,glycan array binding signal (z-score),[12],-0.28
same,glycan array binding signal (z-score),GlcNAc(b1-3)Fuc,-0.213
same,glycan array binding signal (z-score),GlcNAc(b1-3)Gal,-0.191
same,glycan array binding signal (z-score),[13],-0.204
same,glycan array binding signal (z-score),GlcNAc(b1-3)Gal(b1-4)Glc,-0.191
same,glycan array binding signal (z-score),[14],-0.194
same,glycan array binding signal (z-score),[15],-0.146
same,glycan array binding signal (z-score),[16],0.069
same,glycan array binding signal (z-score),[17],1.97
same,glycan array binding signal (z-score),[18],-0.22
same,glycan array binding signal (z-score),[19],5.59
same,glycan array binding signal (z-score),[20],0.702
same,glycan array binding signal (z-score),[21],1.97
same,glycan array binding signal (z-score),[22],0.073
same,glycan array binding signal (z-score),[23],0.864
same,glycan array binding signal (z-score),[24],1.02
same,glycan array binding signal (z-score),[25],0.294
same,glycan array binding signal (z-score),[26],0.002
same,glycan array binding signal (z-score),[27],0.226
same,glycan array binding signal (z-score),[28],-0.123
same,glycan array binding signal (z-score),[29],-0.195
same,glycan array binding signal (z-score),[30],0.232
same,glycan array binding signal (z-score),[31],-0.173
same,glycan array binding signal (z-score),[32],-0.149
same,glycan array binding signal (z-score),[33],-0.178
same,glycan array binding signal (z-score),GlcNAc(b1-3)GalNAc,-0.222
same,glycan array binding signal (z-score),GlcNAc(b1-3)Man,-0.201
same,glycan array binding signal (z-score),[34],-0.244
same,glycan array binding signal (z-score),[35],-0.191
same,glycan array binding signal (z-score),[36],-0.242
same,glycan array binding signal (z-score),[37],-0.125
same,glycan array binding signal (z-score),GlcNAc(b1-4)GlcNAc,-0.138
same,glycan array binding signal (z-score),[38],-0.269
same,glycan array binding signal (z-score),[39],-0.269
